The antibiotic and cytotoxicity screens of Wong et al. (2023)
This is one part of the list.

Tests used:
HSkMC = human skeletal muscle cells; experiment: cytotoxicity call (relative viability < 0.9); conditions: 10 µM
HepG2 = experiment: cytotoxicity call (relative viability < 0.9); conditions: 10 µM
S. aureus RN4220 = experiment: growth inhibition call (relative growth <= 0.2); conditions: 50 µM

Row | Structure (SMILES) | cytotoxicity call (HSkMC) | cytotoxicity call (HepG2) | growth inhibition call (S. aureus RN4220)
1 | C[C@@H]1CN([C@@H](C)CO)C(=O)c2cc(NC(=O)C3CCCCC3)ccc2O[C@H]1CN(C)S(=O)(=O)c1cn(C)cn1 | inactive | inactive | inactive
2 | CO[C@@H]1CN(C)C(=O)c2ccc(NC(=O)Nc3ccc(Cl)cc3)cc2OC[C@@H](C)N(C(=O)Nc2c(C)noc2C)C[C@H]1C | inactive | inactive | inactive
3 | C[C@@H]1COC(=O)[C@@H](Cc2ccc(F)cc2)CC=CC[C@@H](CC(=O)N[C@@H](CO)Cc2ccccc2)C(=O)N1 | inactive | inactive | inactive
4 | CC(=O)N1CCC2(CC1)NC(=O)NC2=O | inactive | inactive | inactive
5 | C[C@@H]1CN([C@H](C)CO)C(=O)c2cc(NS(=O)(=O)c3cccs3)ccc2O[C@@H](C)CCCCO[C@H]1CN(C)Cc1ccc(C(=O)O)cc1 | inactive | inactive | inactive
6 | C[C@@H]1CN([C@H](C)CO)C(=O)Cc2cc(NC(=O)C3CC3)ccc2O[C@@H]1CN(C)S(=O)(=O)c1cccs1 | inactive | inactive | inactive
7 | Cc1nc(-c2ccc(Cl)cc2)c(-c2ccccc2)s1 | inactive | active | inactive
8 | Cc1noc(C)c1NC(=O)N(C)C[C@@H]1Oc2c(NC(=O)c3ccc(-c4nccs4)cc3)cccc2C(=O)N([C@@H](C)CO)C[C@H]1C | inactive | inactive | inactive
9 | Cc1noc(C)c1S(=O)(=O)Nc1ccc2c(c1)CC(=O)N([C@H](C)CO)C[C@@H](C)[C@H](CN(C)S(C)(=O)=O)O2 | inactive | inactive | inactive
10 | CO[C@H]1CN(C)C(=O)c2ccc(NC(=O)Nc3ccc(Cl)cc3)cc2OC[C@@H](C)N(C(=O)Nc2c(C)noc2C)C[C@@H]1C | inactive | inactive | inactive
11 | O=C(C[C@H]1CC[C@H]2[C@@H](COC[C@@H](O)CN2C(=O)c2ccc3c(c2)OCO3)O1)NC1Cc2ccccc2C1 | inactive | inactive | inactive
12 | CCCC(=O)Nc1ccc2c(c1)OC[C@H](C)N(S(=O)(=O)c1cn(C)cn1)C[C@@H](C)[C@H](OC)CN(C)C2=O | inactive | inactive | inactive
13 | C[C@H]1CN([C@@H](C)CO)C(=O)c2cccc(NC(=O)NC3CCCCC3)c2O[C@@H]1CN(C)C(=O)Nc1cccc2ccccc12 | inactive | inactive | inactive
14 | C[C@@H]1CN([C@@H](C)CO)C(=O)c2cc(NC(=O)Nc3ccc(C(F)(F)F)cc3)ccc2O[C@H]1CN(C)CC1CCCCC1 | active | active | inactive
15 | Cc1cc(C(=O)Nc2cccc3c2O[C@@H](CN(C)C(=O)NC(C)C)[C@H](C)CN([C@@H](C)CO)C3=O)n(C)n1 | inactive | inactive | inactive
16 | Nc1ncnc2[nH]cnc12 | inactive | inactive | inactive
17 | C[C@H](CO)N1C[C@H](C)[C@H](CN(C)S(=O)(=O)c2cccs2)Oc2c(NS(=O)(=O)c3cn(C)cn3)cccc2C1=O | inactive | inactive | inactive
18 | CC(C)C#Cc1cnc2c(c1)C(=O)N([C@H](C)CO)C[C@@H](C)[C@@H](CN(C)S(=O)(=O)c1cn(C)cn1)O2 | inactive | inactive | inactive
19 | CC(C)NC(=O)N(C)C[C@@H]1Oc2ccc(NC(=O)Cn3cnnn3)cc2CC(=O)N([C@@H](C)CO)C[C@@H]1C | inactive | inactive | inactive

Row | Structure (SMILES) | cytotoxicity call (HSkMC) | cytotoxicity call (HepG2) | growth inhibition call (S. aureus RN4220)
20 | C[C@@H]1CN([C@H](C)CO)C(=O)Cc2cc(NC(=O)C3CC3)ccc2O[C@@H]1CN(C)S(=O)(=O)c1ccccc1 | inactive | inactive | inactive
21 | CC(C)CC#Cc1ccc2c(c1)O[C@H](CN(C)C(=O)c1ccccn1)[C@@H](C)CN([C@H](C)CO)S2(=O)=O | inactive | inactive | inactive
22 | CC12CC3CC(C)(C1)CC(N)(C3)C2.Cl | inactive | active | inactive
23 | O=C(C[C@@H]1C=C[C@H](NC(=O)c2ccc3c(c2)OCO3)[C@H](CO)O1)NCc1ccc(Oc2ccccc2)cc1 | inactive | inactive | inactive
24 | C[C@H](CO)N1C[C@H](C)[C@@H](CN(C)Cc2ccc(Oc3ccccc3)cc2)Oc2c(NC(=O)NC3CCCCC3)cccc2C1=O | inactive | inactive | inactive
25 | C[C@H](CO)N1C[C@H](C)[C@H](CN(C)S(=O)(=O)c2ccc(Cl)cc2)Oc2c(NS(C)(=O)=O)cccc2C1=O | inactive | inactive | inactive
26 | C[C@@H]1CN([C@H](C)CO)C(=O)CCCn2cc(nn2)CO[C@@H]1CN(C)Cc1ccc(C(=O)Nc2ccccc2N)cc1 | inactive | inactive | inactive
27 | CCCNC(=O)Nc1ccc2c(c1)OC[C@H](C)N(C(=O)C1CCOCC1)C[C@@H](C)[C@H](OC)CN(C)C2=O | inactive | inactive | inactive
28 | C[C@@H]1CN([C@@H](C)CO)C(=O)c2cc(NC(=O)c3ccncc3)ccc2O[C@@H]1CN(C)C(=O)Nc1ccc2c(c1)OCO2 | inactive | inactive | inactive
29 | CCC(=O)Nc1ccc2c(c1)OC[C@@H](C)N(C(=O)CN1CCOCC1)C[C@H](C)[C@H](OC)CN(C)C2=O | inactive | inactive | inactive
30 | CN1C(=O)c2cc(NC(=O)C3CCCC3)ccc2OC[C@H]2O[C@@H](CC(=O)NCCc3ccncc3)CC[C@@H]21 | inactive | inactive | inactive
31 | C[C@@H]1CN([C@@H](C)CO)C(=O)c2cc(NC(=O)Nc3ccc(C(F)(F)F)cc3)ccc2O[C@@H](C)CCCCO[C@@H]1CN(C)S(=O)(=O)c1ccc(F)cc1 | inactive | inactive | inactive
32 | COc1cc(CN2CCC(C(=O)N[C@@H](c3ccc(F)cc3)c3ccc4ccccc4n3)CC2)cc(OC)c1 | inactive | active | inactive
33 | C[C@H]1CCCCO[C@@H](CN(C)C(=O)c2ccccc2)[C@@H](C)CN([C@@H](C)CO)C(=O)c2cc(NC(=O)Cc3ccccc3)ccc2O1 | inactive | inactive | inactive
34 | CN1C(=O)c2cc(NC(=O)c3cnccn3)ccc2OC[C@H]2O[C@@H](CC(=O)N[C@@H]3CCN(Cc4ccccc4)C3)CC[C@@H]21 | inactive | inactive | inactive
35 | C[C@@H]1CCCCO[C@H](CN(C)Cc2ccncc2)[C@H](C)CN([C@@H](C)CO)C(=O)c2cc(NC(=O)Nc3cccc4ccccc34)ccc2O1 | inactive | active | inactive
36 | C[C@H](CO)N1C[C@H](C)[C@H](CN(C)C(=O)C2CCOCC2)Oc2ncc(C#CCc3ccccc3)cc2C1=O | inactive | inactive | inactive
37 | C[C@@H]1CN([C@@H](C)CO)C(=O)c2cccc(NC(=O)c3ccc(-c4nccs4)cc3)c2O[C@H]1CN(C)C(=O)Nc1cccc2ccccc12 | inactive | inactive | inactive
38 | CCOC(=O)[C@@H](N)[C@@H](O)c1ccccc1 | inactive | inactive | inactive

Row | Structure (SMILES) | cytotoxicity call (HSkMC) | cytotoxicity call (HepG2) | growth inhibition call (S. aureus RN4220)
39 | COc1ncccc1N | inactive | inactive | inactive
40 | Cc1ccc(S(=O)(=O)Nc2ccc3c(c2)C(=O)N(C)[C@@H]2CC[C@@H](CC(=O)NCCc4ccncc4)O[C@@H]2CO3)cc1 | inactive | inactive | inactive
41 | C[C@H](CO)N1C[C@H](C)[C@@H](CN(C)C(=O)Cc2ccccc2)OCCCC[C@H](C)Oc2ccc(NC(=O)Nc3cccc4ccccc34)cc2C1=O | inactive | inactive | inactive
42 | C[C@@H]1CN([C@H](C)CO)C(=O)c2cc(NC(=O)Nc3ccc(C(F)(F)F)cc3)ccc2O[C@@H]1CN(C)Cc1ccc(-c2ccccc2)cc1 | active | active | inactive
43 | C[C@@H]1CCCCO[C@H](CN(C)S(C)(=O)=O)[C@H](C)CN([C@H](C)CO)C(=O)c2cc(N(C)C)ccc2O1 | inactive | inactive | inactive
44 | C[C@@H]1CCCCO[C@@H](CN(C)Cc2ccc(C(=O)O)cc2)[C@H](C)CN([C@@H](C)CO)C(=O)c2cc(NC(=O)Nc3ccccc3)ccc2O1 | inactive | inactive | inactive
45 | C[C@H](CO)N1C[C@H](C)[C@@H](CN(C)C(=O)Nc2cccc3ccccc23)OCCCC[C@H](C)Oc2ccc(N(C)C)cc2C1=O | inactive | inactive | inactive
46 | O=C(N[C@@H]1C=C[C@H](CC(=O)N2CCOCC2)O[C@H]1CO)c1ccc2c(c1)OCO2 | inactive | inactive | inactive
47 | CC(C)NC(=O)N(C)C[C@H]1Oc2ccc(NS(=O)(=O)c3ccccc3)cc2CC(=O)N([C@@H](C)CO)C[C@H]1C | inactive | inactive | inactive
48 | N=C(N)NCCCC[C@@H]1NC(=O)CCSSC[C@@H](C(N)=O)NC(=O)[C@@H]2CCCN2C(=O)[C@H](Cc2c[nH]c3ccccc23)NC(=O)[C@H](CC(=O)O)NC(=O)CNC1=O | inactive | inactive | inactive
49 | COC(=O)c1cn(CC(N)=O)c2ccccc12 | inactive | inactive | inactive
50 | C[C@@H]1CN([C@H](C)CO)C(=O)Cc2cc(NC(=O)NC3CCCCC3)ccc2O[C@@H]1CN(C)S(=O)(=O)c1cn(C)cn1 | inactive | inactive | inactive
51 | COCCNC(=O)C[C@@H]1CC[C@H]2[C@@H](COC[C@@H](O)CN2S(=O)(=O)c2ccccc2F)O1 | inactive | inactive | inactive
52 | C[C@@H]1CN([C@H](C)CO)C(=O)c2cccc(NS(=O)(=O)c3ccccc3)c2O[C@H]1CN(C)CC1CC1 | inactive | inactive | inactive
53 | Cc1noc(C)c1NC(=O)Nc1ccc2c(c1)CC(=O)N([C@H](C)CO)C[C@H](C)[C@H](CN(C)C(=O)Nc1cccc3ccccc13)O2 | inactive | inactive | inactive
54 | COCC(=O)Nc1ccc2c(c1)OC[C@@H](C)N(C(=O)Cc1ccccn1)C[C@@H](C)[C@H](OC)CN(C)C2=O | inactive | inactive | inactive
55 | CN(C)CCCNC(=O)C[C@@H]1CC[C@H]2[C@@H](COC[C@H](O)CN2S(=O)(=O)c2ccccc2)O1 | inactive | inactive | inactive
56 | COc1cccc(C#Cc2ccc3c(c2)O[C@H](CN(C)C(=O)c2ccccn2)[C@H](C)CN([C@H](C)CO)S3(=O)=O)c1 | inactive | active | inactive
